Reference: the supplement of paper PMC11741623
Some of the results follow. Interaction screen of human proteins with wild-type SARS-CoV-2 proteins by split-DHFR complementation in yeast, 1 µg/mL methotrexate. Value = fitness of the pair (three or more lineages) minus that of the viral protein without a human partner, on a scale set by negative (0) and fused positive (1) controls, mean of up to three cultures; higher = more likely to interact. Active = false discovery rate below 0.05 (one-sided t-test) in at least one culture. Nearly all pairs are not hits, and differences among them are mostly noise (correlation between cultures about 0.3); most hits were seen in one culture only. Human sequences are the Swiss-Prot entries looked up by gene name; the clone may be another isoform. NSP2 values were corrected by the authors for a growth advantage. Listed are human proteins with a hit and a random twelfth of the others.

The substances below were run on SARS-CoV-2 ORF3B (assay: yeast fitness gain over the viral ORF with no human partner (scaled fitness); higher = more likely to interact).
Experimental: (§1)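 Split mouse DHFR complementation in pooled diploid yeast: human ORFeome clones carry one fragment and viral ORFs the other; barcoded lineages compete in 1 µg/mL methotrexate and fitness is read by barcode sequencing in up to three cultures.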

Substance	yeast fitness gain
MCM9, Q9NXL9	inactive: -0.0575
OR4D1, Q15615	inactive: -0.261
ZFYVE26, Q68DK2	inactive: -0.0848
MAFF, Q9ULX9	inactive: -0.106
BNIP3L, O60238	inactive: 0.106
BHLHA15, Q7RTS1	inactive: -0.00117
EGR3, Q06889	inactive: -0.166
CBWD1, Q9BRT8	inactive: 0.00877
KPNA1, P52294	inactive: 0.00825
HYDIN, Q4G0P3	inactive: 0.103
TET2, Q6N021	inactive: 0.0195
HAUS7, Q99871	inactive: 0.0928
PTCD1, O75127	inactive: -0.0562
HOXC8, P31273	inactive: 0.00331

The substances below were run on SARS-CoV-2 ORF6 in the same assay as above.
Experimental: as §1

Substance	yeast fitness gain
MCM9, Q9NXL9	inactive: -0.08
ZFYVE26, Q68DK2	inactive: 0.00297
MAFF, Q9ULX9	inactive: -0.015
BNIP3L, O60238	inactive: -0.0646
BHLHA15, Q7RTS1	inactive: 0.0144
PTBP1, P26599	inactive: -0.11
SRGAP1, Q7Z6B7	inactive: 0.0828
ZNF720, Q7Z2F6	inactive: -0.108
EGR3, Q06889	inactive: 0.067
KPNA1, P52294	inactive: 0.0124
HYDIN, Q4G0P3	inactive: 0.0481
ZNF611, Q8N823	inactive: 0.0624
TET2, Q6N021	inactive: 0.031
HAUS7, Q99871	inactive: -0.0855
PTCD1, O75127	inactive: -0.353
HOXC8, P31273	inactive: -0.32

Each substance was assayed on SARS-CoV-2 ORF7A in the same assay as above.
Experimental: as §1

Substance	yeast fitness gain
MCM9, Q9NXL9	inactive: 0.27
ZFYVE26, Q68DK2	inactive: -0.605
MAFF, Q9ULX9	inactive: 0.00359
BHLHA15, Q7RTS1	inactive: 0.0161
CBWD1, Q9BRT8	inactive: -0.0815
HYDIN, Q4G0P3	inactive: -0.174
ZNF611, Q8N823	inactive: 0.0185

These substances were tested on SARS-CoV-2 ORF7B in the same assay as above.
Experimental: as §1

Substance	yeast fitness gain
LARP1B, Q659C4	inactive: -0.00157
MCM9, Q9NXL9	inactive: 0.159
ZFYVE26, Q68DK2	inactive: -0.07
MAFF, Q9ULX9	inactive: -0.109
BNIP3L, O60238	inactive: 0.0592
BHLHA15, Q7RTS1	inactive: -0.0182
SOX14, O95416	inactive: -0.0619
DESI2, Q9BSY9	inactive: 0.114
EGR3, Q06889	inactive: 0.013
KPNA1, P52294	inactive: 0.0266
HYDIN, Q4G0P3	inactive: 0.0392
TET2, Q6N021	inactive: -0.169
HAUS7, Q99871	inactive: -0.0207
HOXC8, P31273	inactive: -0.0517
